Laboratory results as given in PubChem BioAssay AID330 (DTP/NCI, 2004).
Toxic doses and inconclusive results are not listed. Some entries of the source have several records that differ or are many. They are shown here; other results are not. There may be further records. The values listed for one entry differ, and nothing given here explains why; some may be repeats, others may stem from another dose, organism or construct than stated. Additions like (4×) give the number of equal values in this list. Numbered stars: 1 amine (or outer) side, 2 acyl side, 3 side chain; on linkers, the order of the positions; unused ones are H or OH. Bridge positions count the residues as written; N and C are the ends. Square brackets hold non-standard residues; d marks the D form. Peptide text beside a SMILES is read from it. I, II: the chains in the order shown. Actinocin(9to1) = Cc1c2oc3c(C)ccc(C(=O)[*:1])c3nc-2c(C(=O)[*:2])c(N)c1=O; aThr = C[C@H](O)[C@H](N)C(=O)O; NMeV = CN[C@H](C(=O)O)C(C)C; Sar = CNCC(=O)O

System: P388 leukemia ip, CD2F1 mice, survival T/C
Test: NCI In Vivo Anticancer Drug Screen. Data for tumor model P388 Leukemia (intraperitoneal) in CD2F1 (CDF1) mice
Conditions: endpoint: median survival time, higher = longer survival

## Nc1nc(=S)c2ncn(C3OC(CO)C(O)C3O)c2[nH]1 (stereo not given)
dose: 100.0 mg/kg/injection, schedule: Q01DX005 (ip), vehicle: saline with Tween-80
  T/C: 122 % of control and 162 % of control

## CC[C@]1(O)C[C@H]2CN(CCc3c([nH]c4ccccc34)[C@@](C(=O)OC)(c3cc4c(cc3OC)N(C=O)[C@H]3[C@@](O)(C(=O)OC)[C@H](OC(C)=O)[C@]5(CC)C=CCN6CC[C@]43[C@@H]65)C2)C1
dose: 0.13 mg/kg/injection, schedule: Q04DX003 (ip), vehicle: saline
  T/C: 116 % of control and 162 % of control
dose: 0.8 mg/kg/injection, schedule: Q04DX003 (ip), vehicle: saline
  T/C: 119 % of control and 182 % of control

## N[C@@H](Cc1ccc(N(CCCl)CCCl)cc1)C(=O)O
dose: 10.0 mg/kg/injection, schedule: Q01DX005 (ip), vehicle: saline
  T/C: 116 % of control and 187 % of control

## COc1cccc2c1C(=O)c1c(O)c3c(c(O)c1C2=O)C[C@@](O)(C(=O)COC(=O)Cc1ccccc1)C[C@@H]3OC1CC(N)C(O)C(C)O1 (stereo not given in full)
dose: 0.5 mg/kg/injection, schedule: Q01DX009 (ip), vehicle: saline with Tween-80
  T/C: 118 % of control, 158 % of control, 174 % of control

## Cc1c2oc3c(C)ccc(C(=O)N[C@@H]4C(=O)N[C@H](C(C)C)C(=O)N5CCC[C@H]5C(=O)N(C)CC(=O)N(C)[C@@H](C(C)C)C(=O)O[C@H]4C)c3nc-2c(C(=O)N[C@@H]2C(=O)N[C@H](C(C)C)C(=O)N3CCC[C@H]3C(=O)N(C)CC(=O)N(C)[C@@H](C(C)C)C(=O)O[C@H]2C)c(N)c1=O (I: [aThr][dV]P[Sar][NMeV] / II: [aThr][dV]P[Sar][NMeV]; ester I:1-I:C, II:1-II:C; linker I:N-II:N via Actinocin(9to1))
dose: 0.07 mg/kg/injection, schedule: Q01DX009 (ip), vehicle: water
  T/C: 94 % of control and 194 % of control (2×)
dose: 0.6 mg/kg/injection, schedule: Q01DX001 (ip), vehicle: water
  T/C: 101 % of control (2×) and 156 % of control

## COc1cc(NS(C)(=O)=O)ccc1Nc1c2ccccc2nc2ccccc12
dose: 2.0 mg/kg/injection, schedule: Q04DX003 (ip), vehicle: other
  T/C: 116 % of control and 153 % of control

## O=C(NC1CCC1)OCc1c(COC(=O)NC2CCC2)c(-c2ccc(Cl)c(Cl)c2)n2c1CCC2
dose: 50.0 mg/kg/injection, schedule: Q01DX009 (ip), vehicle: distilled water + Tween-80
  T/C: 101 % of control and 155 % of control

## Nc1ncn(C2OC(CO)C(O)C2O)c(=O)n1 (stereo not given)
dose: 6.0 mg/kg/injection, schedule: Q01DX009 (ip), vehicle: saline
  T/C: 92 % of control, 103 % of control, 329 % of control
